According to PubChem BioAssay AID1347120 (National Center for Advancing Translational Sciences (NCATS), 2019):
Among all 390,000 compounds or so, about 930 (0.24%) were called active. The shares of active, inactive and inconclusive entries below differ from those in the screen. Calls come from the whole dose curve; as a rule, active = well fitted activation curve with a large enough effect; inconclusive = small, poorly fitted or top-dose-only effect; inactive = no such curve, though single readings can be large or run the other way. Potencies beside an inconclusive call are fits to weak or partial responses and may not hold up.

test: qHTS for Suppressors of FUS Proteinopathy: Primary screen using FUS-linked yeast assay; note: nearly all actives have a fitted effect of over 55% in size;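 for growth rescue (activation): plate controls were DMSO vehicle for no effect and reference control for full effect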; settings: S. cerevisiae FUS-expressing, OD600, 24 h; Potency: growth rescue; growth rescue (activation): at 76.6 µM (top of the series)
Procedure, shortened: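 Quantitative HTS measuring growth restoration of FUS-toxic yeast. Galactose-induced cells (OD 0.005) were exposed 24hr at 30C to compounds at several concentrations, then absorbance at 600 nm was recorded.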
Potency is the fitted concentration of half-maximal effect; tags give direction and shape of the fitted curve.

Row | SMILES | Potency | growth rescue (activation)
1 | O=C(N[C@@H](Cc1ccccc1)C(=O)N1CCC2(CC1)NCCc1[nH]cnc12)c1cccc(Br)c1 | inconclusive: 6.31 µM [activator, partial curve, poor fit] | –
2 | Nc1ccc2oc(-c3cc(Br)ccc3Cl)nc2c1 | inconclusive: 3.98 µM [activator, partial curve, poor fit] | –
3 | O=C(Nc1cccc(S(=O)(=O)N2CCOCC2)c1)c1cc(S(=O)(=O)N2CCOCC2)c(Cl)cc1Cl | inconclusive: 20 µM [activator, single point] | –
4 | Cc1ccc(NC2=CC(=O)CC(c3ccco3)C2)c(N)c1 (stereo not given) | inconclusive: 10 µM [activator, partial curve] | –
5 | C#CCNC(=O)C[C@H]1C[C@@]2(C(=O)OC)C(=C[C@H](C3CCCC3)O[C@@H]2C)N(Cc2cccc3ccccc23)C1=O | inconclusive: 31.6 µM [activator, partial curve, poor fit] | –
6 | Oc1c(CN2CCOCC2)cc(COCc2ccccc2)c2cccnc12 | inconclusive: 31.6 µM [activator, single point] | –
7 | O=C(c1ccccc1)N1CCc2cc(CNS(=O)(=O)c3ccc(Cl)s3)ccc21 | – | inactive: 9.87%
8 | CN1CCN(CC(O)COc2ccc(C34CC5CC(CC(C5)C3)C4)cc2)CC1 (stereo not given) | inconclusive: 25.1 µM [activator, partial curve] | –
9 | CCOC(=O)C1CCN(c2ncnc3c2[nH]c2cccc(OC)c23)CC1 | active: 22.4 µM | –
10 | CC(=O)c1cccc(-c2cnc3c(NC=O)cc(-c4cccc(C(=O)N(C)C)c4)cn23)c1 | inconclusive: 20 µM [activator, partial curve] | –
11 | Nc1nc(N)c2c(ccc3c2ccn3Cc2cccc([N+](=O)[O-])c2)n1 | inconclusive: 50.1 µM [activator, single point] | –
12 | CCCC1=Nc2cc(C(=O)N3CCC(C(=O)OCC)CC3)ccc2Sc2ccccc21 | inconclusive: 15.8 µM [activator, single point] | –
13 | C[C@@H]1CN([C@@H](C)CO)S(=O)(=O)c2ccc(Br)cc2O[C@H]1CN(C)C(=O)Nc1ccc(C(F)(F)F)cc1 | inconclusive: 28.2 µM [activator, single point] | –
14 | CCN=c1scc(-c2ccco2)n1/N=C/c1ccc(O)cc1 | inconclusive: 12.6 µM [activator, partial curve, poor fit] | –
15 | COc1ccc(S(=O)(=O)N2CCOCC2)cc1C(=O)Nc1ccc(N2CCCCCC2)cc1 | inconclusive: 35.5 µM [activator, single point] | –
16 | O=C(Nc1ccc(C(O)(C(F)(F)F)C(F)(F)F)cc1)c1ccc(F)cc1F | – | inactive: -3.39%
17 | CC(=O)N1CCN(C2=NC(=O)N(c3ccc(Br)cc3)C(=O)C2)CC1 | – | inactive: 5.99%
18 | COC(=O)[C@]12C[C@H](CC(=O)NCc3ccc(OC)c(OC)c3)C(=O)N(Cc3ccco3)C1=C[C@H](C(C)(C)C)O[C@@H]2C | inconclusive: 3.98 µM [activator, full curve, poor fit] | –

Row | SMILES | Potency | growth rescue (activation)
19 | Cc1ccc(C)c(NC(=O)C2CCN(S(=O)(=O)c3ccc4c(c3)NC(=O)CO4)CC2)c1 | inconclusive: 35.5 µM [activator, single point] | –
20 | CC1(C)Cc2c(c(N3CCOCC3)nc3sc(-c4ccc(C(=O)O)o4)c(N)c23)CO1 | inconclusive: 20 µM [activator, partial curve, poor fit] | –
21 | COc1ccccc1C(=O)N(c1ccc(C)cc1)S(=O)(=O)c1ccc(Cl)cc1 | – | inactive: -8.92%
22 | COc1ccc(-c2nc3ccccc3nc2-c2ccccc2)cc1OC | – | inactive: 19.6%
23 | COC(=O)[C@]12C[C@H](CC(=O)N3CCN(C(=O)c4ccco4)CC3)C(=O)N(Cc3cccc4ccccc34)C1=C[C@H](C(C)C)O[C@@H]2C1CC1 | inconclusive: 15.8 µM [activator, partial curve, poor fit] | –
24 | O=C(NCCCCc1ccccc1)C12CN(Cc3ccccc3)CC1C(c1cccc([N+](=O)[O-])c1)=NO2 (stereo not given) | inconclusive: 10 µM [activator, partial curve] | –
25 | O=S(=O)(Nc1ncnc2sc3c(c12)CCC3)c1ccc(Cl)s1 | inconclusive: 12.6 µM [activator, partial curve, poor fit] | –
26 | COC(=O)[C@@]12CCCN1[C@H](c1ccc(-c3ccc(OC)cc3)c(OC)c1)[C@@H]1C(=O)N(C)C(=O)[C@@H]12 | inconclusive: 15.8 µM [activator, partial curve, poor fit] | –
27 | CC(C)C[C@H](NC(=O)c1[nH]cnc1C(=O)Nc1ccc(CNC(=O)OC(C)(C)C)cc1)C(=O)OCc1ccccc1 | inconclusive: 12.6 µM [activator, partial curve, poor fit] | –
28 | COc1ccc(C(=O)NCC2(c3ccc(OC)c(OC)c3)CCCC2)cc1OC | – | inactive: 5.11%
29 | CCOC(=O)c1ccc(CNC(=O)CSc2nc(NC(=O)c3ccccc3)c3c(C)c(C)oc3n2)cc1 | – | inactive: 55.5%
30 | CCOC(=O)C1=CC[C@@H](c2ccccc2Cl)N(S(=O)(=O)c2ccc(C)cc2)[C@H]1C(=O)OCC | inconclusive: 50.1 µM [activator, single point] | –
31 | Cc1ccc(NC(=O)OCCN2CCN(S(=O)(=O)c3ccc(C)cc3)CCC2=O)cc1 | inconclusive: 25.1 µM [activator, single point] | –
32 | Cc1ccc(S(=O)(=O)Nc2ccc3c(c2)C(=O)N([C@H](C)CO)C[C@H](C)[C@@H](CN(C)C(=O)Nc2ccc(C(F)(F)F)cc2)O3)cc1 | inconclusive: 17.8 µM [activator, partial curve, poor fit] | –
33 | COC(=O)[C@@]12C[C@@H](CC(=O)N3CCN(C(=O)C4CC4)CC3)C(=O)N(Cc3ccc4c(c3)OCO4)C1=CCC(C)(C)C2 | inconclusive: 6.31 µM [activator, partial curve, poor fit] | –
34 | CCn1nc(C)c(NC(=O)/C=C/c2ccc(OC)c(COc3ccc(Br)cc3)c2)c1C | inconclusive: 39.8 µM [activator, single point] | –
35 | CCOC(=O)c1ccc(-c2ccc(N3C(c4cccc(OC)c4)=Cc4ccc(F)cc4C3CC(C)=O)cc2)cc1F (stereo not given) | inconclusive: 22.4 µM [activator, partial curve, poor fit] | –
